Laboratory results taken from PubChem BioAssay AID1347073 (National Center for Advancing Translational Sciences (NCATS), 2019).
About 200 (0.44%) of roughly 45,000 compounds were called active. Not shown: some 7% with an inconclusive outcome. Calls come from the whole dose curve; as a rule, active = well fitted activation curve with a large enough effect; inconclusive = small, poorly fitted or top-dose-only effect; inactive = no such curve, though single readings can be large or run the other way. This is one part of the list.

assay: qHTS of TDP-43 Inhibitors: NCGC Sytravon Library Screen; conditions: yeast TDP-43 toxicity rescue, BacTiter-Glo growth, 24 h; series mostly up to 46.1 µM; growth rescue (activation): at the top concentration; note: 0% is about no effect; nearly all actives have a fitted effect of over 55% in size
In short: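 TDP-43-expressing yeast, pregrown in raffinose, seeded at OD600 0.02 in galactose medium with compound for 24 hr at 30 deg C. Growth read by BacTiter-Glo luminescence, so rescue of toxicity appears as activation.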

Row | Structure (SMILES) | growth rescue (activation)
1 | CN(C)CCNC(=O)c1ccc2c(c1)N(Cc1ccccc1)C(=O)c1ccccc1S2(=O)=O | inactive: 10.1%
2 | CCN(CC)S(=O)(=O)c1ccc(C(=O)N2CCc3ccccc32)cc1 | inactive: 5.51%
3 | CN1C(=O)N(C)C2(c3ccccc3)NNC(N)=NC12c1ccccc1 (stereo not drawn) | inactive: -2.68%
4 | Cc1cc(C)n2ncc(C(=O)Nc3cccc(O)c3)c2n1 | inactive: -4.92%
5 | COc1ccc(C(C(=O)NCC2CCCO2)N(C(=O)CNC(=O)c2cccs2)c2ccccc2C)cc1OC (stereo not drawn) | inactive: 4.9%
6 | O=C1/C(=C/c2ccc(O)cc2)SC(=S)N1CC1CCCO1 (stereo not drawn) | inactive: 3.77%
7 | O=C(O)c1cccc(Nc2ncnc3ccc(Br)cc23)c1 | inactive: 17.5%
8 | CCOC(=O)c1ccc(S(=O)(=O)NCCN(CC)CC)cc1 | inactive: 3.64%
9 | COC(=O)c1cc(NC(=O)CN(C)Cc2ccccc2)cc(C(=O)OC)c1 | inactive: 3.78%
10 | CCNC(=O)COc1ccc(CC)cc1 | inactive: 2.15%
11 | O=C(CN1CCN(C(c2ccccc2)c2ccccc2)CC1)NCc1ccccc1 | inactive: 11.9%
12 | O=C(Nc1ccc(NC(=O)c2ccc(Cl)cc2Cl)cc1)c1ccc2c(c1)OCO2 | inactive: -6.41%
13 | COc1ccc(Cc2nc3ccc(S(N)(=O)=O)cc3[nH]2)cc1OC | inactive: -1.64%
14 | COc1ccc(N2CC(C(=O)NCc3ccco3)CC2=O)cc1 (stereo not drawn) | inactive: -6.36%
15 | CC1CCN(c2cc(N3CCN(C(=O)c4ccc(F)c(F)c4)CC3)c([N+](=O)[O-])cc2F)CC1 | inactive: 21%
16 | O=C(COC(=O)c1cc(=O)c2ccccc2o1)NC1CCCC1 | inactive: 9.11%
17 | COC(=O)CCCN=C1SCCN1Cc1ccccc1 | inactive: 9.09%
18 | CC1(C(=O)NCc2ccc(C(F)(F)F)cc2)CCN1Cc1c(F)cccc1F (stereo not drawn) | inactive: 2.6%
19 | O=C(CSc1c2c(nc3cc(Cl)ccc13)CCCC2)NCCN1CCOCC1 | inactive: -6.47%
20 | COc1cc(NC(=S)NCCCN2CCOCC2)c(OC)cc1NC(=O)c1ccco1 | inactive: -8.21%
21 | CCc1cccc(NC(=O)c2cccc(S(=O)(=O)N3CCN(C)CC3)c2)c1 | inactive: 1.97%
22 | Cc1cc(NC(=O)Cn2cnc3sccc3c2=O)no1 | inactive: -2.57%

Row | Structure (SMILES) | growth rescue (activation)
23 | CCCCCCOC(=O)Cc1c(C)nc(N)[nH]c1=O | inactive: 17.2%
24 | O=C(COC(=O)C1CC1)Nc1ccc(S(=O)(=O)N2CCOCC2)cc1 | inactive: 2.92%
25 | COc1cc(CCC(=O)OCC(=O)Nc2ccc(C)cc2Cl)cc(OC)c1OC | inactive: 9.14%
26 | NC(=O)NOCc1ccc(F)cc1Cl | inactive: 5.67%
27 | CC(C)(C)c1nc(SCC(=O)NC2CCCC2)c2ccccc2n1 | inactive: -7.9%
28 | Cc1ccccc1NC(=O)Cc1nnc(SCC(=O)NC2CCCC2)n1C | inactive: 8.18%
29 | COCC(C)n1c(SCc2cc(C(=O)OC)c(C)o2)nc2ccccc2c1=O (stereo not drawn) | inactive: -6.67%
30 | COc1ccc(C(N)c2csc(Nc3ccc(C(F)(F)F)cn3)n2)cc1 (stereo not drawn) | inactive: 2.69%
31 | O=C(NCCN1CCOCC1)c1ccc(=O)n(Cc2ccc(Cl)cc2)c1 | inactive: -0.344%
32 | CC(Oc1ccccc1Cl)C(=O)Nc1ccc(S(=O)(=O)N2CCOCC2)cc1 (stereo not drawn) | inactive: -4.64%
33 | Cc1ccc([N+](=O)[O-])cc1Nc1nc(N2CCOCC2)nc(N2CCOCC2)n1 | inactive: 4.72%
34 | CC(NC(=O)c1ccccc1)C(=O)N/N=C/c1cccc([N+](=O)[O-])c1 (stereo not drawn) | inactive: 3.43%
35 | COc1cc(NC(=O)C/C(C)=N/NC(=O)C2CCCCC2)c(OC)cc1Cl | inactive: 16.4%
36 | COc1cc(CN2CCN(Cc3ccc(SC)cc3)CC2)cc(OC)c1O | inactive: -6.87%
37 | O=c1[nH]ncc(NCc2ccc(Cl)cc2)c1Cl | inactive: 0.749%
38 | COC(=O)c1ccccc1N=Nc1c(N)[nH][nH]c1=O | inactive: -20%
39 | O=C(Cc1ccc(O)cc1)NC1CCCCCC1 | inactive: -12.9%
40 | Nc1ccc(C(=O)OCc2nc3ccccc3s2)cc1 | inactive: 15.7%
41 | Cc1csc(=Nc2ccccc2)n1C | inactive: -1.01%
42 | O=C(NC1CCCc2c1cnn2-c1ccc(F)cc1F)c1ccccc1N1CCOCC1 (stereo not drawn) | inactive: -37.3%
43 | Cn1cc(CCC(=O)NC2CC2)c2ccccc21 | inactive: -5.76%
44 | COc1cccc(OCc2ccc(Cn3nc(NC(=O)NCCc4ccc(OC)c(OC)c4)c4ccccc43)cc2)c1 | inactive: 12.6%

Row | Structure (SMILES) | growth rescue (activation)
45 | CCCCNc1nc(=S)n(-c2ccccc2)c(C)c1C(C)=O | inactive: -7.63%
46 | CCC(=O)Nc1ccc2oc(-c3cccnc3)nc2c1 | inactive: 1.11%
47 | CCn1cc(C(=O)N2CCN(c3ccc(F)cc3)CC2)c2cc(OC)c(OC)cc2c1=O | inactive: 3.39%
48 | CCOC(=O)c1ccc(N2C(=O)CC(N3CCC(C(=O)OCC)CC3)C2=O)cc1 (stereo not drawn) | inactive: -92.7%
49 | COc1ccc(C(C)=O)cc1CC(=O)NC1CCCCCC1 | inactive: -2.65%
50 | Cc1cccc(-c2noc(C(C)NC(=O)c3ccco3)n2)c1 (stereo not drawn) | inactive: 17.8%
51 | CN(C)S(=O)(=O)c1ccc(C(=O)OCC(=O)c2ccc3c(c2)NC(=O)CO3)cc1 | inactive: 9.12%
52 | O=C(CSc1nc2ccccc2c(=O)n1Cc1ccco1)NCCN1C(=O)CSC1=O | inactive: 38.2%
53 | Cc1ccccc1C(=O)Nc1ccnn1C1CCN(CC2CC=CCC2)CC1 (stereo not drawn) | inactive: -6.73%
54 | Cc1cccc(C(=O)OCC(=O)N2CCN(C(=O)c3ccco3)CC2)c1O | inactive: 11.4%
55 | CSc1ccccc1NC(=O)CSc1nnc(COc2ccccc2)o1 | inactive: 17.3%
56 | Cn1cnnc1SCC(=O)Nc1ccc(F)cc1F | inactive: -13.2%
57 | CC1CN(C(=O)COC(=O)c2ccc(O)cc2)CC(C)O1 (stereo not drawn) | inactive: -20.8%
58 | Cc1ccc2nc(Cl)c3nnnn3c2c1 | inactive: -18.6%
59 | Cn1c(SCC(=O)N2CCN(C(=O)c3ccco3)CC2)nnc1-c1ccc(NS(C)(=O)=O)cc1 | inactive: -3.89%
60 | COc1ccc(-c2noc(C3CCCN(C(=O)c4ccccc4OC)C3)n2)cc1 (stereo not drawn) | inactive: 21.2%
61 | Cc1cc(=O)oc(C)c1C(=O)N1CCN(C(c2ccccc2)c2ccccc2)CC1 | inactive: -9.34%
62 | CCCCn1c(SCC(=O)c2ccc(O)cc2O)nc2cc(S(N)(=O)=O)ccc21 | inactive: 4.66%
63 | Cc1c(C(=O)N2CCNCC2)oc2ccccc12 | inactive: 14.5%
64 | CC(=O)c1cccc(NC(=O)c2cccc3c(-c4cnn(C)c4)coc23)c1 | inactive: 36%
65 | COC(=O)N/N=C/c1cccc([N+](=O)[O-])c1 | inactive: 17.3%
66 | COc1ccccc1C(CNc1nc(C(F)(F)F)nc2ccccc12)N(C)C (stereo not drawn) | inactive: 9.17%

Row | Structure (SMILES) | growth rescue (activation)
67 | Cc1cc(=O)n2[nH]c(C(=O)O)nc2n1 | inactive: -11.5%
68 | CCOc1ccc(S(=O)(=O)Nc2ccc3c(c2)OCO3)cc1 | inactive: 2.84%
69 | CCOC(=O)N1CCC(NC(=O)C2CCN(S(=O)(=O)c3ccc4c(c3)oc(=O)n4C)CC2)CC1 | inactive: 2.32%
70 | O=C(O)c1cccc(Nc2ncnc3c2cnn3-c2ccccc2)c1 | inactive: 34.6%
71 | COc1cc(C)nc2nc(SCc3ccccc3)nn12 | inactive: 42.4%
72 | Cc1ccc(NC(=O)N2CCCC2C(=O)Nc2ccc3c(c2)OCCO3)cc1 (stereo not drawn) | inactive: -1.27%
73 | O=C(O)c1ccc2nc(-c3cc4cccc(O)c4oc3=O)[nH]c2c1 | inactive: -24.5%
74 | CN1CCN(C(=S)c2ccc([N+](=O)[O-])cc2)CC1 | inactive: 3.28%
75 | CN(C)CCCNC(=S)N1CCN(c2nc(-c3ccccc3)cs2)CC1 | inactive: 1.36%
76 | O=S(=O)(Nc1ccc(O)c(Sc2nc3ccccc3s2)c1)c1ccc(F)cc1 | inactive: 10.1%
77 | C/C(=N/Oc1nc(C)cc(C)n1)c1ccc(F)cc1 | inactive: 9.98%
78 | O=C(COc1ccc(Cl)cc1Cl)N1CCN(C(=O)c2ccco2)CC1 | inactive: 19.9%
79 | CCc1nc2ccc(C(=O)Nc3cccc(OCC(=O)N(C)C)c3)cn2c1N(C)Cc1ccc(OC)cc1 | inactive: -1.94%
80 | CCCC(=O)N1CCN(c2ccc(NC(=O)c3cccs3)cc2Cl)CC1 | inactive: -11.4%
81 | O=C(Cn1cnc2c(oc3nc4c(cc32)CCCC4)c1=O)Nc1cccc(Cl)c1 | inactive: -31%
82 | O=C(CSc1nc2ccccc2c(=O)n1-c1ccc(F)cc1F)Nc1ccc(N2CCOCC2)cc1 | inactive: -12.9%
83 | Cc1ccc(NC(=O)c2cc(N3C(=O)C=CC3=O)ccc2Cl)cc1C | inactive: -94.3%
84 | O=C(O)c1cc(NC(=O)c2ccco2)cc(NC(=O)c2ccco2)c1 | inactive: -19%
85 | CCOc1cc(/C=C/C(=O)c2ccc(OC)c(CN3CCOCC3)c2)cc(Br)c1O | inactive: -3.24%
86 | O=C(NCCN1CCC(Cc2ccccc2)CC1)C1CCN(S(=O)(=O)N2CCC3(CC2)OCCO3)CC1 | inactive: -2.68%
87 | CCOc1ccc2oc(C(=O)OCC(=O)NCC3CCCO3)c(C)c2c1 (stereo not drawn) | inactive: 24.9%
88 | COc1ccc(CNC(=O)c2sccc2C)cc1 | inactive: 21.4%

Row | Structure (SMILES) | growth rescue (activation)
89 | C#CCn1ccc(O)c(Cc2c(F)cccc2Cl)c1=O | inactive: 4.71%
90 | Cc1ccc(S(=O)(=O)N2CCOCC2)cc1NC(=O)c1cc2ccccc2oc1=O | inactive: -17.1%
91 | CN(Cc1ccc(F)cc1)C(=O)C(c1ccccc1)c1ccccc1 | inactive: 17.8%
92 | CCN(CCNC(=O)C1CCCN(S(=O)(=O)CC)C1)c1ccccc1 (stereo not drawn) | inactive: 19.9%
93 | COC(=O)C1CCN(C(=O)Cc2ccccc2OC)CC1 | inactive: -13.7%
94 | CC(C)(C)NC(=O)CN(C(=O)c1snc(C(=O)NC2CCCCC2)c1N)c1ccc(F)cc1 | inactive: -18.1%
95 | O=C1CN(C(=O)COC(=O)/C=C/c2ccc(OC(F)F)cc2)c2ccccc2N1 | inactive: 13.6%
96 | O=C(Nc1nc(-c2cccnc2)cs1)c1ccc([N+](=O)[O-])cc1 | inactive: 8.3%
97 | Cc1nnsc1NC(=O)OCc1ccc(C(C)(C)C)cc1 | inactive: 20.1%
98 | CCOC(=O)c1c(NC(=O)CN2C(=O)NC3(CCC(CC)CC3)C2=O)sc(C)c1-c1ccc(C)cc1 (stereo not drawn) | inactive: 0.786%
99 | COC(=O)c1ccc(C2/C(=C(\O)c3cccc(OC)c3)C(=O)C(=O)N2CCCN(C)C)cc1 (stereo not drawn) | inactive: 13.9%
100 | Cc1ccc([N+](=O)[O-])c(OCCN2C(=O)NC(C)(C)C2=O)c1 | inactive: -9.22%
101 | COc1cc(NC(=O)CSc2nnnn2Cc2ccccc2)cc(OC)c1 | inactive: -2.41%
102 | COc1ccc(C2CC(c3ccc(F)cc3)n3nc(NS(C)(=O)=O)nc3N2)cc1 (stereo not drawn) | inactive: -1.02%
103 | CCOC(=O)C1=C(C)Nc2ncnn2C1c1ccc(N(C)C)cc1 (stereo not drawn) | inactive: -0.423%
104 | CC(C)c1ccc(C(=O)NCCCN2CCN(CCCNC(=O)c3ccc(C(C)C)cc3)CC2)cc1 | inactive: 9.83%
105 | CCCCn1c(N)c(N(CC)C(=O)c2cc(C)cc(C)c2)c(=O)[nH]c1=O | inactive: -7.55%
106 | CC(O)(c1cccnc1)c1nc(-c2ccc(S(C)(=O)=O)cc2)cs1 (stereo not drawn) | inactive: 1.56%
107 | O=C(Cc1ccc(Cl)cc1)NC1CC1 | inactive: 7.62%
108 | Cc1ccc(S(=O)(=O)N2CCCC2C(=O)OCc2nc3sc(C)c(C)c3c(=O)[nH]2)cc1 (stereo not drawn) | inactive: 21.9%
